The source of these data is the supplement of paper PMC6002552.

The other results are listed elsewhere or left out. Most values come without repeats; read them as rough.

This test concerns Bacillus subtilis 168 spores. Kind of test: spore germination/outgrowth inhibition class (0 mild or none, 1 inhibitory, 3 highly inhibitory, 4 no outgrowth, 5 no germination) (ordinal class code); higher = stronger inhibition of spore germination/outgrowth. To be noted: 100 µg/ml; pH 7.4; 8 h. Here is the method:
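Heat-activated Bacillus subtilis 168 spores (OD595 0.2) in TSB with AGFK germinants, buffered with 80 mM MOPS at pH 7.4, were exposed to 100 µg/ml compound (Pyxis Discovery library, catalogue IDs). OD595 was followed for 8 h at 37 °C in a plate reader. Each compound was assigned an ordinal inhibition class: 0 mild/no inhibition (reached 2x initial OD within 2-3 h), 1 inhibitory (3-6 h), 3 highly inhibitory (6-8 h), 4 no outgrowth within 8 h, 5 no germination (no OD decline).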
Regarding `O=C1CC(Sc2ncn[nH]2)C(=O)N1c1ccccc1` (stereo not given), the “spore germination/outgrowth inhibition class” value is inactive: 0. Turning to `CCC(=O)Nc1nc(-c2ccc3c(c2)CCN3C(C)=O)cs1`, the “spore germination/outgrowth inhibition class” value is inactive: 0. To `CCc1ccc(NC(=O)c2snnc2C)cc1` belongs inactive: 0; to `CCc1[nH]nc2c1C(c1ccc(F)cc1F)C(C#N)=C(N)O2` (stereo not given), inactive: 0; to `CC(C)c1[nH]nc2c1C(c1cccc(F)c1)C(C#N)=C(N)O2` (stereo not given), inactive: 0. For `CCn1ccn2nnnc2c1=Nc1ccccc1` the value was inactive: 0. For the compound `CCN(c1ccccc1)c1nc2nonc2n2cnnc12`, the “spore germination/outgrowth inhibition class” value is inactive: 0.

Take `N#Cc1c(NC(=O)C2CCCO2)sc2c1CCCC2` (stereo not given): the “spore germination/outgrowth inhibition class” value is inactive: 0. To `CN1C(=O)C(c2c(O)n(C)c3ccccc23)=NC1=S` belongs inactive: 0; to `COc1cccc(C2C([N+](=O)[O-])=C(N)Oc3n[nH]c(C)c32)c1` (stereo not given), inactive: 0.

Take `Cc1ccc(NC(=O)c2snnc2C)cc1`: the “spore germination/outgrowth inhibition class” value is inactive: 0. Regarding `CCC(C)C(=O)N1CCc2cc(-c3csc(N)n3)ccc21` (stereo not given), the “spore germination/outgrowth inhibition class” value is inactive: 0. In the case of `CCc1[nH]nc2c1C(c1ccccc1Cl)C(C#N)=C(N)O2` (stereo not given), the “spore germination/outgrowth inhibition class” value is inactive: 0. To `Cc1cccc(NC(=O)c2snnc2C)c1` belongs inactive: 0.

Take `CCOC(=O)c1nc(NC(C)=O)n[nH]1`: the “spore germination/outgrowth inhibition class” value was inactive: 0. As for `CCc1[nH]nc2c1C(c1ccccc1)C(C#N)=C(N)O2` (stereo not given), the “spore germination/outgrowth inhibition class” value was inactive: 0. To `CCOC(=O)c1nonc1NC(C)=O` belongs inactive: 0. To `Cc1nnsc1C(=O)NC(C)c1ccccc1` (stereo not given) belongs inactive: 0; to `c1coc(-c2nc3ccccc3o2)c1`, inactive: 0. Consider `Cc1ncc([N+](=O)[O-])n1CC(=O)O`, for which the “spore germination/outgrowth inhibition class” value is inactive: 0. With `Nc1nnc2c(Nc3ccccc3)nc3nonc3n12`, the “spore germination/outgrowth inhibition class” value was inactive: 0. To `Clc1ccc(Nc2nc3nonc3n3nnnc23)cc1` belongs active: 4. To `O=C1C(Cl)=C(NCc2ccco2)C(=O)c2ccccc21` belongs active: 4. For `Cc1ccc2c(c1)c1c(n2C)-c2[nH]ncc2CC1` the value was active: 4. For `O=C1C(=O)c2ccccc2C([O-])=C1[n+]1ccccc1`, the “spore germination/outgrowth inhibition class” value was inactive: 0. For `CCc1cccc(NC(=O)c2snnc2C)c1`, the “spore germination/outgrowth inhibition class” value is inactive: 0.

With `O=C1NC(=O)c2ccc3c4c(ccc1c24)C(=O)NC3=O`, the “spore germination/outgrowth inhibition class” value was inactive: 0. To `O=c1[nH]c2nonc2nc1Nc1ccccc1F` belongs inactive: 0; to `c1ccc2oc(-c3cn[nH]c3)nc2c1`, inactive: 0; to `Cc1ccc(Nc2nnns2)c(C)c1`, inactive: 1. Regarding `Clc1ccc2[nH]c3c(c2c1)CCc1cn[nH]c1-3`, the “spore germination/outgrowth inhibition class” value is active: 5. To `CC(C)c1[nH]nc2c1C(c1ccc(F)cc1)C(C#N)=C(N)O2` (stereo not given) belongs inactive: 0. To `Cc1ccc(C(=O)Nc2nc3ccccc3s2)o1` belongs inactive: 0; to `Cc1nnsc1C(=O)Nc1ccccc1`, inactive: 0. Regarding `CC1=NNC(=S)NC(C)(C)C1`, the “spore germination/outgrowth inhibition class” value is inactive: 0.

Turning to `COc1ccc(C2C([N+](=O)[O-])=C(N)Oc3n[nH]c(C)c32)cc1` (stereo not given), the “spore germination/outgrowth inhibition class” value was inactive: 0. To `CCc1[nH]nc2c1C(c1cccc(F)c1)C(C#N)=C(N)O2` (stereo not given) belongs inactive: 0; to `CC(=O)Nc1nc(-c2ccc3c(c2)CCN3C(=O)C2CCCCC2)cs1`, inactive: 0; to `Cc1cccc2c1=NC(=O)C=2c1sc(=S)[nH]c1O`, active: 3.

As to `CC(=O)Nc1nncs1`, the “spore germination/outgrowth inhibition class” value is inactive: 0.
